# Test results: the antibiotic and cytotoxicity screens of Wong et al. (2023)
# The other results are listed elsewhere or left out.
# Columns and labels:
# [1] = test system: HSkMC (human skeletal muscle cells); assay: cytotoxicity call (relative viability < 0.9); settings: 10 µM
# [2] = test system: S. aureus RN4220; assay: growth inhibition call (relative growth <= 0.2); settings: 50 µM
SMILES,cytotoxicity call [1],growth inhibition call [2]
C[C@H]1CN([C@@H](C)CO)C(=O)c2cc(NC(=O)Nc3ccc(F)cc3)ccc2O[C@H]1CN(C)Cc1ccc(C(F)(F)F)cc1,inactive,inactive
C[C@@H]1CN([C@H](C)CO)C(=O)c2cc(NC(=O)Nc3ccccc3)ccc2O[C@@H]1CN(C)Cc1ccc(C(=O)Nc2ccccc2N)cc1,inactive,inactive
C[C@@H]1CN([C@@H](C)CO)C(=O)Cc2cc(NC(=O)Cn3cnnn3)ccc2O[C@@H]1CN(C)Cc1ccc(-c2ccccc2)cc1,inactive,inactive
O=C(NCCN1CCOCC1)[C@@H]1c2ccccc2C(=O)N(C2Cc3ccccc3C2)[C@H]1c1ccc(CO)cc1,inactive,inactive
O=c1nc(NCCN2CCOCC2)cn[nH]1,inactive,inactive
C[C@@H]1CN([C@@H](C)CO)C(=O)c2cc(NC(=O)CCCN(C)C)ccc2O[C@@H]1CN(C)Cc1ccccc1,inactive,inactive
O=C(N[C@@H]1CC[C@H](CCNS(=O)(=O)c2ccc(F)cc2)O[C@@H]1CO)C1CC1,inactive,inactive
C[C@H](CO)N1C[C@H](C)[C@@H](CN(C)S(=O)(=O)c2cn(C)cn2)Oc2cc(Br)ccc2S1(=O)=O,inactive,inactive
C[C@@H]1CN([C@H](C)CO)C(=O)c2cc(NS(=O)(=O)c3cn(C)cn3)ccc2O[C@H]1CN(C)CC1CCCCC1,inactive,inactive
O=C(C[C@H]1C=C[C@@H](NS(=O)(=O)c2ccccc2F)[C@H](CO)O1)NCCCN1CCOCC1,inactive,inactive
CC(C)NC(=O)N(C)C[C@H]1Oc2ccc(NC(=O)CCC(F)(F)F)cc2CC(=O)N([C@H](C)CO)C[C@H]1C,inactive,inactive
COC(=O)c1c(CC[C@@H](CO)NC(=O)N[C@H](Cc2ccccc2)Cn2cc(-c3ccccc3N)nn2)oc(C(C)=O)c1C(=O)OC,inactive,inactive
CN(C)c1nc2c([nH]1)c(=O)[nH]c(=O)n2C,inactive,inactive
Cc1nc2c(cc1C(=O)NN)c(=O)n(C)c(=O)n2C,inactive,inactive
C[C@H]1CN([C@@H](C)CO)C(=O)c2cccc(NS(=O)(=O)c3ccc(F)cc3)c2O[C@@H]1CN(C)C(=O)Nc1ccc(C(F)(F)F)cc1,inactive,inactive
C[C@@H]1CN([C@H](C)CO)C(=O)Cc2cc(NS(=O)(=O)c3cn(C)cn3)ccc2O[C@@H]1CN(C)CC1CCCCC1,inactive,inactive
C[C@@H]1CCCCO[C@H](CN(C)S(=O)(=O)c2ccc(Cl)cc2)[C@@H](C)CN([C@@H](C)CO)C(=O)c2cc(NS(=O)(=O)c3ccc(Cl)cc3)ccc2O1,inactive,inactive
NNC(=O)c1cccc(C(F)(F)F)n1,inactive,inactive
C[C@H]1CN([C@@H](C)CO)C(=O)c2cc(NC(=O)Cc3cn(C)c4ccccc34)ccc2O[C@H]1CN(C)Cc1ccc(-c2ccccc2)cc1,inactive,inactive
C[C@H]1CN([C@@H](C)CO)C(=O)Cc2cc(NC(=O)Cn3cnnn3)ccc2O[C@H]1CN(C)CC1CC1,inactive,inactive
COc1nn(C)cc1-c1n[nH]c(=S)n1C,inactive,inactive
C[C@@H]1CN([C@H](C)CO)C(=O)Cc2cc(NC(=O)C3CC3)ccc2O[C@H]1CN(C)Cc1ccc2c(c1)OCO2,inactive,inactive
Cc1noc(C)c1S(=O)(=O)Nc1ccc2c(c1)C(=O)N([C@H](C)CO)C[C@@H](C)[C@@H](CN(C)Cc1ccc(C(=O)O)cc1)O2,inactive,inactive
C[C@@H]1CN([C@@H](C)CO)C(=O)Cc2cc(NC(=O)CCCN(C)C)ccc2O[C@H]1CN(C)Cc1ccc(Oc2ccccc2)cc1,inactive,inactive
Cc1noc(C)c1NC(=O)Nc1ccc2c(c1)CC(=O)N([C@H](C)CO)C[C@@H](C)[C@@H](CN(C)Cc1ccc(-c3ccccc3)cc1)O2,inactive,inactive
C[C@@H]1CCCCO[C@@H](CN(C)C(=O)Nc2ccc(C(F)(F)F)cc2)[C@H](C)CN([C@@H](C)CO)C(=O)c2cc(NC(=O)Nc3ccc4c(c3)OCO4)ccc2O1,inactive,inactive
C[C@@H]1CN([C@@H](C)CO)C(=O)CCCn2cc(nn2)CO[C@@H]1CN(C)C(=O)Nc1cccc2ccccc12,inactive,inactive
COc1ccc(S(=O)(=O)N(C)C[C@@H]2Oc3ccc(NC(=O)NC(C)C)cc3C(=O)N([C@H](C)CO)C[C@H]2C)cc1,inactive,inactive
O=C(C[C@@H]1CC[C@H]2[C@@H](COC[C@H](O)CN2CC2CCOCC2)O1)N1CCOCC1,inactive,inactive
